# Data from the supplement of paper PMC8728848.
# The other results are listed elsewhere or left out.
# Legend:
# Test in all cases: glycan array binding signal (z-score within array); higher = stronger binding
# Settings in all cases: glycan notation: IUPAC condensed, linker removed
# [1] = target: Man(a1-3)[Man(a1-6)]Man(a1-6)[Man(a1-2)Man(a1-3)]Man(b1-4)GlcNAc(b1-4)GlcNAc
# Outline: (§1)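 Glycan array data were curated from 3228 arrays in the Consortium for Functional Glycomics database and kept only where the protein sequence was available. Glycan names were converted to IUPAC-condensed notation, and columns mapping to the same glycan were averaged. The binding signal is a within-array Z-score, averaged across arrays of the same protein sequence at different concentrations or buffers and across linkers. Negative Z-scores can be read as non-binding.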
# [2] = target: Man(a1-3)[Man(a1-6)]Man(a1-6)[Man(a1-3)]Man
# Outline: as §1
# [3] = target: Man(a1-3)[Man(a1-6)]Man(a1-6)[Man(a1-3)]Man(b1-4)GlcNAc(b1-4)GlcNAc
# Outline: as §1
# [4] = target: Man(a1-3)[Man(a1-6)]Man(b1-4)GlcNAc(b1-4)GlcNAc
# Outline: as §1
# [5] = target: Man(a1-3)[Man(a1-6)]Man(b1-4)GlcNAc(b1-4)[Fuc(a1-6)]GlcNAc
# Outline: as §1
# [6] = target: Man(a1-6)Man
# Outline: as §1
# [7] = target: Man(b1-4)GlcNAc
# Outline: as §1
# [8] = target: MurNAc(b1-4)GlcNAc
# Outline: as §1
# [9] = target: Neu5Ac(a2-3)Gal
# Outline: as §1
# [10] = target: Neu5Ac(a2-3)Gal(b1-3)GalNAc
# Outline: as §1
# [11] = target: Neu5Ac(a2-3)Gal(b1-3)GalNAc(b1-3)Gal(a1-4)Gal(b1-4)Glc
# Outline: as §1
# [12] = target: Neu5Ac(a2-3)Gal(b1-3)GalNAc(b1-4)[Neu5Ac(a2-3)]Gal(b1-4)Glc
# Outline: as §1
# [13] = target: Neu5Ac(a2-3)Gal(b1-3)GalNAc(b1-4)[Neu5Ac(a2-8)Neu5Ac(a2-3)]Gal(b1-4)Glc
# Outline: as §1
# [14] = target: Neu5Ac(a2-3)Gal(b1-3)GalNAc6S
# Outline: as §1
# [15] = target: Neu5Ac(a2-3)Gal(b1-3)GlcNAc
# Outline: as §1
# [16] = target: Neu5Ac(a2-3)Gal(b1-3)GlcNAc(b1-2)Man
# Outline: as §1
# [17] = target: Neu5Ac(a2-3)Gal(b1-3)GlcNAc(b1-2)Man(a1-3)[GlcNAc(b1-4)][Neu5Ac(a2-3)Gal(b1-3)GlcNAc(b1-2)Man(a1-6)]Man(b1-4)GlcNAc(b1-4)GlcNAc
# Outline: as §1
# [18] = target: Neu5Ac(a2-3)Gal(b1-3)GlcNAc(b1-2)Man(a1-3)[Neu5Ac(a2-3)Gal(b1-3)GlcNAc(b1-2)Man(a1-6)]Man(b1-4)GlcNAc(b1-4)GlcNAc
# Outline: as §1
# [19] = target: Neu5Ac(a2-3)Gal(b1-3)GlcNAc(b1-2)[Neu5Ac(a2-3)Gal(b1-3)GlcNAc(b1-4)]Man(a1-6)[Neu5Ac(a2-3)Gal(b1-3)GlcNAc(b1-2)Man(a1-3)]Man(b1-4)GlcNAc(b1-4)GlcNAc
# Outline: as §1
# [20] = target: Neu5Ac(a2-3)Gal(b1-3)GlcNAc(b1-3)Gal(b1-3)GlcNAc
# Outline: as §1
# [21] = target: Neu5Ac(a2-3)Gal(b1-3)GlcNAc(b1-3)Gal(b1-4)GlcNAc
# Outline: as §1
# [22] = target: Neu5Ac(a2-3)Gal(b1-3)GlcNAc(b1-3)GalNAc
# Outline: as §1
# [23] = target: Neu5Ac(a2-3)Gal(b1-3)GlcNAc(b1-4)Gal(b1-4)Glc
# Outline: as §1
# [24] = target: Neu5Ac(a2-3)Gal(b1-3)GlcNAc(b1-6)GalNAc
# Outline: as §1
# [25] = target: Neu5Ac(a2-3)Gal(b1-3)GlcNAc6S
# Outline: as §1
# [26] = target: Neu5Ac(a2-3)Gal(b1-3)[Fuc(a1-4)]GlcNAc
# Outline: as §1
# [27] = target: Neu5Ac(a2-3)Gal(b1-3)[Fuc(a1-4)]GlcNAc(b1-3)Gal(b1-3)[Fuc(a1-4)]GlcNAc
# Outline: as §1
# [28] = target: Neu5Ac(a2-3)Gal(b1-3)[Fuc(a1-4)]GlcNAc(b1-3)Gal(b1-4)[Fuc(a1-3)]GlcNAc
# Outline: as §1
# [29] = target: Neu5Ac(a2-3)Gal(b1-3)[GlcNAc(b1-6)]GalNAc
# Outline: as §1
# [30] = target: Neu5Ac(a2-3)Gal(b1-3)[Neu5Ac(a2-6)]GalNAc
# Outline: as §1
# [31] = target: Neu5Ac(a2-3)Gal(b1-3)[Neu5Ac(a2-6)]GlcNAc(b1-3)[Fuc(a1-3)[Gal(b1-4)]GlcNAc(b1-6)]Gal(b1-4)Glc
# Outline: as §1
# [32] = target: Neu5Ac(a2-3)Gal(b1-3)]Neu5Ac(a2-3)Gal(b1-4)]GlcNAc
# Outline: as §1
# [33] = target: Neu5Ac(a2-3)Gal(b1-4)Glc
# Outline: as §1
# [34] = target: Neu5Ac(a2-3)Gal(b1-4)GlcNAc
# Outline: as §1
# [35] = target: Neu5Ac(a2-3)Gal(b1-4)GlcNAc(b1-2)Man
# Outline: as §1
# [36] = target: Neu5Ac(a2-3)Gal(b1-4)GlcNAc(b1-2)Man(a1-3)[GlcNAc(b1-4)][Neu5Ac(a2-3)Gal(b1-4)GlcNAc(b1-2)Man(a1-6)]Man(b1-4)GlcNAc(b1-4)GlcNAc
# Outline: as §1
# [37] = target: Neu5Ac(a2-3)Gal(b1-4)GlcNAc(b1-2)Man(a1-3)[Neu5Ac(a2-3)Gal(b1-4)GlcNAc(b1-2)Man(a1-6)]Man(b1-4)GlcNAc(b1-4)GlcNAc
# Outline: as §1
# [38] = target: Neu5Ac(a2-3)Gal(b1-4)GlcNAc(b1-2)Man(a1-3)[Neu5Ac(a2-3)Gal(b1-4)GlcNAc(b1-2)Man(a1-6)]Man(b1-4)GlcNAc(b1-4)[Fuc(a1-6)]GlcNAc
# Outline: as §1
binder,measurement,setting,value
"Apa (Mycobacterium tuberculosis), Rv1860 (protein) MHQVDPNLTRRKGRLAALAIAAMASASLVTVAVPATANADPEPAPPVPTTAASPPSTAAAPPAPATPVAPPPPAAANTPNAQPGDPNAAPPPADPNAPPPPVIAPNAPQPVRIDNPVGGFSFALPAGWVESDAAHFDYGSALLSKTTGDPPFPGQPPPVANDTRIVLGRLDQKLYASAEATDSKAAARLGSDMGEFYMPYPGTRINQETVSLDANGVSGSASYYEVKFSDPSKPNGQIWTGVIGSPAANAPDAGPPQRWFVVWLGTANNPVDKGAAKALAESIRPLVAPPPAPAPAPAEPAPAPAPAGEVAPTPTTPTPQRTLPA",glycan array binding signal (z-score),[1],0.221
same,glycan array binding signal (z-score),[2],0.665
same,glycan array binding signal (z-score),[3],-0.102
same,glycan array binding signal (z-score),[4],-0.187
same,glycan array binding signal (z-score),[5],0.243
same,glycan array binding signal (z-score),[6],-0.69
same,glycan array binding signal (z-score),[7],-0.741
same,glycan array binding signal (z-score),[8],-0.3
same,glycan array binding signal (z-score),[9],-0.445
same,glycan array binding signal (z-score),[10],-0.28
same,glycan array binding signal (z-score),[11],0.043
same,glycan array binding signal (z-score),[12],0.12
same,glycan array binding signal (z-score),[13],0.05
same,glycan array binding signal (z-score),[14],-0.205
same,glycan array binding signal (z-score),[15],-0.392
same,glycan array binding signal (z-score),[16],-0.346
same,glycan array binding signal (z-score),[17],0.022
same,glycan array binding signal (z-score),[18],0.256
same,glycan array binding signal (z-score),[19],0.309
same,glycan array binding signal (z-score),[20],-0.394
same,glycan array binding signal (z-score),[21],-0.493
same,glycan array binding signal (z-score),[22],-0.423
same,glycan array binding signal (z-score),[23],0.31
same,glycan array binding signal (z-score),[24],-0.143
same,glycan array binding signal (z-score),[25],1.68
same,glycan array binding signal (z-score),[26],-0.536
same,glycan array binding signal (z-score),[27],0.278
same,glycan array binding signal (z-score),[28],-0.139
same,glycan array binding signal (z-score),[29],-0.268
same,glycan array binding signal (z-score),[30],-0.234
same,glycan array binding signal (z-score),[31],-0.364
same,glycan array binding signal (z-score),[32],-0.37
same,glycan array binding signal (z-score),[33],-0.081
same,glycan array binding signal (z-score),[34],-0.293
same,glycan array binding signal (z-score),[35],1.24
same,glycan array binding signal (z-score),[36],-0.051
same,glycan array binding signal (z-score),[37],-0.603
same,glycan array binding signal (z-score),[38],0.28
